Experimental data reported in patent publication US20230383007A1 (BIOSION, published 2023).
Where a chain is given by its changes, count along the chain named.

T1: human TROP2-his protein (human, UniProt P09758 27-274)
T1 construct: also called biotin labeled human TROP2-his protein
T1 sequence: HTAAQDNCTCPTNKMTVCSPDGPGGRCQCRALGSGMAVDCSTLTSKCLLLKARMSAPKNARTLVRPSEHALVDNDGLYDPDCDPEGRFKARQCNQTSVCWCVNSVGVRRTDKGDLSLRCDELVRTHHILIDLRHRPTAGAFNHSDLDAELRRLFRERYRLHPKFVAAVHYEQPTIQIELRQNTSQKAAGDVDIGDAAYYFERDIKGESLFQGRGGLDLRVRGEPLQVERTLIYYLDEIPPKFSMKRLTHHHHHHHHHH

B1: 01-9F-CDR-V1-Fc (Fc fusion)
heavy: QVQLVESGGGSVQAGGSLRLSCVVSGLPYERYCVAWFRQGPGKEREGVARILSDGTTSYSDSVKGRFTISKDNAKNTLYLQMNSLKSEDTATYYCAAEAFRPFTPSEGDCTTVLGIDYWGKGTPVTVSS[… human IgG1 Fc …]
notes: Heavy chain only antibody (VHH-Fc); tested as cell supernatant; also called 01-9F-CDR-Fc-V1
B2: 01-9F-CDR-V2-Fc (Fc fusion)
heavy: B1 heavy with E107D, G108A
notes: Heavy chain only antibody (VHH-Fc); tested as cell supernatant; also called 01-9F-CDR-Fc-V2
B3: 01-9F-CDR-V3-Fc (Fc fusion)
heavy: B1 heavy with E107I
notes: Heavy chain only antibody (VHH-Fc); tested as cell supernatant; also called 01-9F-CDR-Fc-V3
B4: 01-9F-CDR-V4-Fc (Fc fusion)
heavy: B1 heavy with D54E
notes: Heavy chain only antibody (VHH-Fc); tested as cell supernatant; also called 01-9F-CDR-Fc-V4
B5: 01-9F-CDR-V5-Fc (Fc fusion)
heavy: B1 heavy with G55A
notes: also called 01-9F-CDR-Fc-V5
B6: 01-9F-CDR-V6-Fc (Fc fusion)
heavy: B1 heavy with D54E, E107D, G108A
notes: Heavy chain only antibody (VHH-Fc); tested as cell supernatant; also called 01-9F-CDR-Fc-V6
B7: 01-9F-CDR-V7-Fc (Fc fusion)
heavy: B1 heavy with G55A, E107D, G108A
notes: Heavy chain only antibody (VHH-Fc); tested as cell supernatant; also called 01-9F-CDR-Fc-V7
B8: 01-9F-CDR-V8-Fc (Fc fusion)
heavy: B1 heavy with D54E, D61E
notes: Heavy chain only antibody (VHH-Fc); tested as cell supernatant; also called 01-9F-CDR-Fc-V8
B9: 01-9F-CDR-V9-Fc (Fc fusion)
heavy: B1 heavy with G55A, D61E
notes: also called 01-9F-CDR-Fc-V9
B10: 01-9F-CDR-V10-Fc (Fc fusion)
heavy: B1 heavy with D54E, S62T, E107D, G108A
notes: Heavy chain only antibody (VHH-Fc); tested as cell supernatant; also called 01-9F-CDR-Fc-V10
B11: 01-9F-CDR-V11-V1-Fc (Fc fusion)
heavy: QVQLVESGGGLVQPGGSLRLSCAVSGLPYERYCVAWFRQAPGKGLEGVARILSDATTSYSDTVKGRFTISKDNAKNTLYLQMNSLKAEDTAVYYCAAEAFRPFTPSDADCTTVLGIDYWGKGTTVTVSS[… human IgG1 Fc …]
notes: also called 01-9F-Fc-CDRV11-V1
B12: 01-9F-CDR-V11-V8-Fc (Fc fusion)
heavy: B11 heavy with Q1E, V24A, Y29F, E30S, T77S, K86R, K121Q
notes: Humanized heavy chain only antibody (VHH-Fc); also called 01-9F-Fc-CDRV11-V8
B13: 01-9F-CDR-V11-V9-Fc (Fc fusion)
heavy: B11 heavy with Q1E, V24A, E30S, K71R, T77S, K86R, K121Q
notes: also called 01-9F-Fc-CDRV11-V9
B14: 01-9F-CDR-V11-V12-Fc (Fc fusion)
heavy: B11 heavy with Q1E, V24A, L27F, P28T, T77S, K86R, K121Q
notes: Humanized heavy chain only antibody (VHH-Fc); also called 01-9F-Fc-CDRV11-V12
B15: 01-9F-CDR-V11-V13-Fc (Fc fusion)
heavy: B11 heavy with Q1E, V24A, P28T, Y29F, T77S, K86R, K121Q
notes: Humanized heavy chain only antibody (VHH-Fc); also called 01-9F-Fc-CDRV11-V13
B16: 01-9F-CDR-V11-V14-Fc (Fc fusion)
heavy: B11 heavy with Q1E, V24A, P28T, K71R, T77S, K86R, K121Q
notes: Humanized heavy chain only antibody (VHH-Fc); also called 01-9F-Fc-CDRV11-V14
B17: 01-9F-CDR-V11-V16-Fc (Fc fusion)
heavy: B11 heavy with Q1E, V24A, P28T, T77S, K86R, K121Q
notes: Humanized heavy chain only antibody (VHH-Fc); also called 01-9F-Fc-CDRV11-V16
B18: 01-9F-CDR-V11-V17-Fc (Fc fusion)
heavy: B11 heavy with Q1E, V24A, L27F, P28T, E30S, K86R
notes: Humanized heavy chain only antibody (VHH-Fc); also called 01-9F-Fc-CDRV11-V17
B19: 01-9F-CDR-V11-V18-Fc (Fc fusion)
heavy: B11 heavy with Q1E, V24A, P28T, Y29F, E30S, K86R
notes: Humanized heavy chain only antibody (VHH-Fc); also called 01-9F-Fc-CDRV11-V18
B20: 01-9F-CDR-V11-V19-Fc (Fc fusion)
heavy: B11 heavy with Q1E, V24A, P28T, E30S, K71R, K86R
notes: Humanized heavy chain only antibody (VHH-Fc); also called 01-9F-Fc-CDRV11-V19
B21: 01-9F-CDR-V11-V21-Fc (Fc fusion)
heavy: B11 heavy with Q1E, V24A, P28T, E30S, K86R
notes: Humanized heavy chain only antibody (VHH-Fc); also called 01-9F-Fc-CDRV11-V21
B22: 01-9F-CDR-V11-V22-Fc (Fc fusion)
heavy: QVQLVESGGGLVQPGGSLRLSCAASGGSEYRYCVAWFRQAPGQGLEAVARILSDATTSYSDTVKGRFTISRDNSKNTLYLQMNSLRAEDTAVYYCAAEAFRPFTPSDADCTTVLGIDYWGQGTLVTVSS[… human IgG1 Fc …]
notes: Humanized heavy chain only antibody (VHH-Fc); also called 01-9F-Fc-CDRV11-V22
B23: 01-9F-CDR-V11-V2-Fc (Fc fusion)
heavy: B11 heavy with Q1E, L27F, P28T, E30S, T77S, K86R, K121Q
notes: Humanized heavy chain only antibody (VHH-Fc); also called 01-9F-Fc-CDRV11-V2
B24: 01-9F-CDR-V11-V3-Fc (Fc fusion)
heavy: B11 heavy with Q1E, P28T, Y29F, E30S, T77S, K86R, K121Q
notes: Humanized heavy chain only antibody (VHH-Fc); also called 01-9F-Fc-CDRV11-V3
B25: 01-9F-CDR-V11-V4-Fc (Fc fusion)
heavy: B11 heavy with Q1E, P28T, E30S, K71R, T77S, K86R, K121Q
notes: Humanized heavy chain only antibody (VHH-Fc); also called 01-9F-Fc-CDRV11-V4
B26: 01-9F-CDR-V11-V6-Fc (Fc fusion)
heavy: B11 heavy with Q1E, P28T, E30S, T77S, K86R, K121Q
notes: Humanized heavy chain only antibody (VHH-Fc); also called 01-9F-Fc-CDRV11-V6
B27: 01-9F-CDR-V11-V7-Fc (Fc fusion)
heavy: B11 heavy with Q1E, V24A, L27F, E30S, T77S, K86R, K121Q
notes: Humanized heavy chain only antibody (VHH-Fc); also called 01-9F-Fc-CDRV11-V7
B28: 01-9F-Fc (Fc fusion)
heavy: B1 heavy with E107D
notes: C terminus of the VHH linked to the N terminus of the Fc region; also called heavy chain only antibody 01-9F-Fc

Target: T1, human TROP2-his protein
Assay: SPR Biacore; cell supernatant captured on anti-human IgG chip, 40 nM human TROP2-his as analyte
Source text: (§1) The purified anti-TROP2 mouse monoclonal antibodies (mAbs) were characterized for binding affinity and binding kinetics by Biacore T200 system (GE healthcare, Pittsburgh, PA, USA). Briefly, goat anti-human IgG (GE healthcare, Cat #BR100839, Human Antibody Capture Kit) was covalently linked to a CM5 chip (carboxy methyl dextran coated chip from GE healthcare #BR100530) via primary amines, using a standard amine coupling kit (GE healthcare, Pittsburgh, PA, USA) provided by Biacore. Un-reacted moieties on the chip (biosensor) surface were blocked with ethanolamine. The anti-TROP2 antibodies of the disclosure and the benchmark at the concentration of 2 μg/ml were respectively flowed onto the chip at a flow rate of 10 μL/min. Then, serially diluted human TROP2-his protein (prepared in-house with SEQ ID NO: 16), or cynomolgus TROP2-his protein (prepared in-house with SEQ ID NO: 19), 2-fold dilution in HBS-EP⁺ buffer (provided by Biacore) starting at 160 nM, were flowed onto the chip at a flow rate of 30 μL/min. The antigen-antibody association kinetics was followed for 2 minutes and the dissociation kinetics was followed for 10 minutes. The association and dissociation curves were fit to a 1:1 Langmuir binding model using BIAcore evaluation software.
(§2) For the BIAcore test, cell supernatants containing the 01-9F-Fc variants were respectively flowed onto the chip instead of the purified anti-TROP2 antibodies, at a flow rate of 10 μL/min, and 40 nM human TROP2-his proteins (prepared in-house with SEQ ID NO: 16) in HBS-EP⁺ buffer (provided by Biacore), instead of serially diluted human TROP2-his proteins, were flowed onto the chip at a flow rate of 30 μL/min.

| Kd | koff | kon | Binder |
| --- | --- | --- | --- |
| 0.317 nM | 0.000103 s⁻¹ | 325000 M⁻¹ s⁻¹ | B1 |
| 0.251 nM | 9.23e-05 s⁻¹ | 368000 M⁻¹ s⁻¹ | B2 |
| 0.45 nM | 0.000117 s⁻¹ | 261000 M⁻¹ s⁻¹ | B3 |
| 0.219 nM | 7.01e-05 s⁻¹ | 320000 M⁻¹ s⁻¹ | B4 |
| 0.108 nM | 3.99e-05 s⁻¹ | 368000 M⁻¹ s⁻¹ | B5 |
| 0.197 nM | 6.62e-05 s⁻¹ | 336000 M⁻¹ s⁻¹ | B6 |
| 0.261 nM | 0.000114 s⁻¹ | 439000 M⁻¹ s⁻¹ | B7 |
| 0.215 nM | 6.92e-05 s⁻¹ | 323000 M⁻¹ s⁻¹ | B8 |
| 0.254 nM | 0.000105 s⁻¹ | 413000 M⁻¹ s⁻¹ | B9 |
| 0.259 nM | 0.000117 s⁻¹ | 450000 M⁻¹ s⁻¹ | B10 |

Target: T1, human TROP2-his protein
Assay: SPR Biacore T200; cell supernatant captured on anti-human IgG chip, 40 nM human TROP2-his as analyte
Source text: as §1
For the BIAcore test, cell supernatants containing humanized 01-9F-CDR-V11 antibodies were respectively flowed onto the chip at a flow rate of 10 μL/min, and 40 nM human TROP2-his protein (prepared in-house with SEQ ID NO: 16) in HBS-EP⁺ buffer (provided by Biacore) were flowed onto the chip at a flow rate of 30 μL/min.

| Kd | koff | kon | Binder |
| --- | --- | --- | --- |
| 0.173 nM | 0.000186 s⁻¹ | 1.08e+06 M⁻¹ s⁻¹ | B11 |
| 1.44 nM | 0.00241 s⁻¹ | 1.67e+06 M⁻¹ s⁻¹ | B12 |
| 0.184 nM | 0.000539 s⁻¹ | 2.93e+06 M⁻¹ s⁻¹ | B13 |
| 1.16 nM | 0.00161 s⁻¹ | 1.4e+06 M⁻¹ s⁻¹ | B14 |
| 1.98 nM | 0.00257 s⁻¹ | 1.3e+06 M⁻¹ s⁻¹ | B15 |
| 1.21 nM | 0.00171 s⁻¹ | 1.42e+06 M⁻¹ s⁻¹ | B16 |
| 0.802 nM | 0.00118 s⁻¹ | 1.47e+06 M⁻¹ s⁻¹ | B17 |
| 1.23 nM | 0.00171 s⁻¹ | 1.39e+06 M⁻¹ s⁻¹ | B18 |
| 2.37 nM | 0.0029 s⁻¹ | 1.23e+06 M⁻¹ s⁻¹ | B19 |
| 1.38 nM | 0.00192 s⁻¹ | 1.39e+06 M⁻¹ s⁻¹ | B20 |
| 1.07 nM | 0.0015 s⁻¹ | 1.41e+06 M⁻¹ s⁻¹ | B21 |
| 2.14 nM | 0.00237 s⁻¹ | 1.11e+06 M⁻¹ s⁻¹ | B22 |
| 1.61 nM | 0.00161 s⁻¹ | 998000 M⁻¹ s⁻¹ | B23 |
| 2.47 nM | 0.00219 s⁻¹ | 887000 M⁻¹ s⁻¹ | B24 |
| 0.86 nM | 0.00149 s⁻¹ | 1.74e+06 M⁻¹ s⁻¹ | B25 |
| 0.643 nM | 0.00121 s⁻¹ | 1.88e+06 M⁻¹ s⁻¹ | B26 |
| 0.583 nM | 0.00118 s⁻¹ | 2.03e+06 M⁻¹ s⁻¹ | B27 |

Target: T1, human TROP2-his protein
Assay: SPR Biacore; antibody captured on anti-human IgG chip, 40 nM human TROP2-his as analyte
Source text: as §1, §2

| Kd | koff | kon | Binder |
| --- | --- | --- | --- |
| 0.338 nM | 0.000154 s⁻¹ | 456000 M⁻¹ s⁻¹ | B28 |
